PubChem BioAssay AID485294 (National Center for Advancing Translational Sciences (NCATS), 2010)
Values joined by “and” are separate entries in the source; they are usually repeats but may differ in a detail not shown here. Equal entries are not always repeated. About 150 (0.041%) of roughly 370,000 compounds were called active. The inconclusive results got no clear call from the source; some entries with a clear call stand among them for comparison. Calls come from the whole dose curve; as a rule, active = well fitted inhibition curve with a large enough effect; inconclusive = small, poorly fitted or top-dose-only effect; inactive = flat fitted curve, though single readings scatter. Potencies beside an inconclusive call are fits to weak or partial responses and may not hold up.

Molecular target: Beta-lactamase (Escherichia coli (strain K12)) (UniProt P00811)
Chain of UniProt P00811 (P00811 whole entry, looked up): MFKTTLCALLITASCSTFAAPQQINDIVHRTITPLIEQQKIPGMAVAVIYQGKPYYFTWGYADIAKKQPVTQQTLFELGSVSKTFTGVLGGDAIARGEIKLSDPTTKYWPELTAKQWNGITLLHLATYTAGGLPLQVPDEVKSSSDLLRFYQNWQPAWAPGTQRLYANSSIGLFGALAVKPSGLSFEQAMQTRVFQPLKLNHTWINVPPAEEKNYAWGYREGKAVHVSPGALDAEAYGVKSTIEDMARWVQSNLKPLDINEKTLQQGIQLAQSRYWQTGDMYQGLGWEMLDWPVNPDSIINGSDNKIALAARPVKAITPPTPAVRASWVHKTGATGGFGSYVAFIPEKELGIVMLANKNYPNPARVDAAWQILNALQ
Assay: qHTS Inhibitors of AmpC Beta-Lactamase (assay with detergent); note: nearly all actives have a fitted effect of over 25% in size
Settings: AmpC hydrolysis of nitrocefin, absorbance 480 nm, 0.01% Triton; series mostly up to 114 µM
In short: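 AmpC (5.3 nM in the dispensed reagent) in 20 mM phosphate pH 7.0 with 0.01% (detergent screen) or 0.0001% Triton X-100 was preincubated with compounds for 15 min at room temperature. Nitrocefin was then added from an 800 uM solution, and hydrolysis was followed at 480 nm.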
Potency is the fitted concentration of half-maximal effect; tags give direction and shape of the fitted curve.

Q: Which Potency does the source give for `CC1CCCCC12NC(=O)N(CC(=O)Nc1ccc(Cl)c(S(=O)(=O)N3CCOCC3)c1)C2=O` (stereo not drawn) here?
A: inconclusive: 5.01 µM [inhibitor, full curve, poor fit]

Q: `CCOC(=O)C1=C(NC(=S)NC(=O)c2ccccc2)c2ccccc2CC1(C)C` was tested. Which Potency did it give?
A: inconclusive: 56.2 µM [inhibitor, partial curve]

Q: Which Potency does the source give for `C#CCOCCOCCOCCNc1nc(N2CCN(C(=O)Cn3cc(CCO)nn3)CC2)nc(N2CCN(C(=O)[C@H](C(C)C)n3cc(CCO)nn3)CC2)n1` here?
A: inconclusive: 112 µM [inhibitor, partial curve, poor fit]

Q: How did the Potency turn out when `Cc1ccc(-c2csc(N/N=C/c3ccco3)n2)cc1` was run?
A: inconclusive: 6.31 µM [inhibitor, full curve, poor fit]

Q: With `COc1cc(Nc2ccccn2)cc(C(=O)Nc2cccc(C(F)(F)F)c2)c1` as the compound, how does the Potency read?
A: inactive

Q: How did the Potency turn out when `COc1cccc(Nc2nc(-c3ccccc3)c3cc(C)ccc3n2)c1` was run?
A: inactive

Q: `CNC(=O)c1c(I)c(C(=O)NCC(=O)Nc2c(I)c(C(=O)O)c(I)c(C(=O)NCCO)c2I)c(I)c(N(C)C(C)=O)c1I` was tested. Which Potency did it give?
A: inconclusive: 0.631 µM [inhibitor, full curve, poor fit]

Q: `C/C(=N\Nc1cc(N2CCOCC2)ncn1)c1cccc([N+](=O)[O-])c1` was tested. Which Potency did it give?
A: inactive

Q: For `CCc1ccc(NC(=O)c2ccc3c(c2)C(=O)N(Cc2ccco2)C3=O)cc1`, which Potency is on record?
A: inconclusive: 4.47 µM [inhibitor, full curve, poor fit]

Q: For `O=C(COc1ccc(-c2ccccc2)cc1)NN=C1CCCC1`, which Potency is on record?
A: inconclusive: 100 µM [inhibitor, single point]

Q: How did the Potency turn out when `COc1ccc(NC(=O)CN2C(=O)NC3(CCCC3)C2=O)c(OC)c1` was run?
A: inconclusive: 100 µM [inhibitor, partial curve]

Q: With `Cc1sc2ncnc(N3CCC(C(=O)N(CC(C)C)c4nc5ccccc5s4)CC3)c2c1C` as the compound, how does the Potency read?
A: inconclusive: 3.55 µM [inhibitor, full curve, poor fit]

Q: For `Cn1c(N)c(C(=O)COC(=O)Cc2ccc(Cl)cc2Cl)c(=O)n(C)c1=O`, which Potency is on record?
A: inconclusive: 89.1 µM [inhibitor, single point]

Q: `Brc1c(CSc2nc3ccccc3s2)nc2ncccn12` was tested. Which Potency did it give?
A: inactive

Q: For `CC1=C(C(=O)NC(C)C)C2(CCC(C)CC2)OC1=O` (stereo not drawn), which Potency is on record?
A: inconclusive: 2.51 µM [inhibitor, full curve, poor fit]

Q: For `COc1ccccc1NC(=O)CSc1nnc(-c2ccccn2)n1Cc1ccco1`, which Potency is on record?
A: inconclusive: 4.47 µM [inhibitor, full curve, poor fit]

Q: With `CCN(CC)C(=O)CSc1nc2ccccc2c(=O)n1CCC(=O)N1CCN(c2ccccc2)CC1` as the compound, how does the Potency read?
A: inconclusive: 89.1 µM [inhibitor, single point]

Q: `Cc1cccc(NC(=O)CSc2nc(=O)n3ccccc3n2)c1C` was tested. Which Potency did it give?
A: inconclusive: 1 µM [inhibitor, full curve, poor fit]

Q: For `COc1cccc(NC(=O)C2C3C=CC(O3)C2C(=O)NCc2cccnc2)c1` (stereo not drawn), which Potency is on record?
A: inconclusive: 35.5 µM [inhibitor, partial curve]

Q: How did the Potency turn out when `COc1cccc(NC(=S)N(CCN(C)C)Cc2cccs2)c1` was run?
A: inconclusive: 0.631 µM [inhibitor, full curve, poor fit]

Q: Which Potency does the source give for `C/C(=N/NS(=O)(=O)c1ccc(C)cc1C)c1ccc2c(c1)OCO2` here?
A: inconclusive: 0.708 µM [inhibitor, full curve]

Q: How did the Potency turn out when `COc1ccc(NC(=S)N(CCc2c(C)[nH]c3ccccc23)Cc2cccnc2)cc1` was run?
A: inconclusive: 112 µM [inhibitor, partial curve, poor fit]

Q: With `CCc1nc2ccc(C(=O)N3CCN(c4ccc(Cl)cc4)CC3)cc2nc1CC` as the compound, how does the Potency read?
A: inactive

Q: Which Potency does the source give for `O=C(NNC(=S)NC(=O)c1sc2ccccc2c1Cl)c1ccc(Cl)cc1` here?
A: inconclusive: 44.7 µM [inhibitor, full curve, poor fit]

Q: With `c1ccc(-c2noc(CN3CCN(c4ccccc4)CC3)n2)cc1` as the compound, how does the Potency read?
A: inconclusive: 1.58 µM [inhibitor, full curve]

Q: For `O=C(CSc1nc2c(cnn2-c2ccccc2)c(=O)[nH]1)c1ccc(Cl)cc1`, which Potency is on record?
A: inconclusive: 1.58 µM [inhibitor, full curve, poor fit]

Q: For `Cc1nc2ccccc2n1/N=C/c1cccnc1`, which Potency is on record?
A: inconclusive: 0.631 µM [inhibitor, full curve, poor fit]

Q: `COC(=O)C1=C(C)N(Cc2ccccc2)C(=NCC2CC2)N[C@H]1c1ccccc1` was tested. Which Potency did it give?
A: inconclusive: 28.2 µM [inhibitor, full curve, poor fit] and inconclusive: 79.4 µM [inhibitor, partial curve]

Q: For `CCn1nc(C)cc1C(=O)NC1CC(C)(C)Cc2c1cnn2-c1cccc(F)c1` (stereo not drawn), which Potency is on record?
A: inconclusive: 3.98 µM [inhibitor, single point]

Q: With `COC(=O)Cc1ccc2c3ccccc3n(C)c2c1` as the compound, how does the Potency read?
A: inactive

Q: How did the Potency turn out when `COc1ccc(C(=O)C2CCCN(C(=O)CCNC(C)=O)C2)cc1OC` (stereo not drawn) was run?
A: inconclusive: 1.58 µM [inhibitor, full curve, poor fit]

Q: `O=C(Cc1ccc(Cl)cc1Cl)NC1CCCCCC1` was tested. Which Potency did it give?
A: inconclusive: 35.5 µM [inhibitor, partial curve]

Q: `CC(=O)N1CCN(S(=O)(=O)c2cccc(C(=O)Nc3ccc(C)cn3)c2)CC1` was tested. Which Potency did it give?
A: inconclusive: 2.24 µM [inhibitor, full curve]

Q: How did the Potency turn out when `O=C(Nc1cc(C(F)(F)F)ccc1Cl)C(Sc1n[nH]c(=O)[nH]c1=O)c1ccccc1` (stereo not drawn) was run?
A: inactive

Q: With `FC(F)Oc1ccc(-c2csc(Cc3nnc4n3CCCCC4)n2)cc1` as the compound, how does the Potency read?
A: inconclusive: 89.1 µM [inhibitor, partial curve]

Q: Which Potency does the source give for `O=C(Nc1nc(-c2ccccn2)cs1)c1cc(S(=O)(=O)N2CCOCC2)ccc1F` here?
A: inconclusive: 100 µM [inhibitor, partial curve, poor fit]

Q: With `CCN(CC)CCn1c(SCC(=O)Nc2cccc(OC)c2)nc2c(sc3ccccc32)c1=O` as the compound, how does the Potency read?
A: inconclusive: 100 µM [inhibitor, single point]

Q: `COc1ccc(NC(=O)CSC2=Nc3ccccc3C3=NC(CC(=O)NCc4ccc(F)cc4)C(=O)N23)cc1` (stereo not drawn) was tested. Which Potency did it give?
A: inactive
